Experimental data published in PMC12040169 (PLOS Biology, 2025).
The other results are listed elsewhere or left out.

System: T1, C. trachomatis L2/434/Bu expressing GFP (CTL2-GFP)
T1 construct: L2/434/Bu GFP intracellular growth in HeLa cells
Set-up: species or system HeLa; C. trachomatis total inclusion area by high-content imaging, normalised to DMSO
Conditions: total inclusion area; 28.5 h, 10 µM; inhibitor
Outline: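 Imaging read-out: GFP inclusions and Hoechst nuclei captured by high-content imaging after fixation. Inclusion area/number = chlamydial growth; nuclei count = host cell viability. MIC calculated per earlier method.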

Structure (SMILES)	% of control remaining
Cc1oc(CSCc2cc(C(=O)O)c(C)o2)cc1C(=O)O [CBK264291]	110.182
c1ccc2oc(CN3Cc4nc[nH]c4C[C@H]3c3nc(-c4ccc5c(c4)OCO5)no3)cc2c1 [CBK288998]	87.3378
O=C(Nc1cccc2c(NC(=O)C3CC3c3ccccc3)cccc12)C1CC1c1ccccc1 (stereo not shown) [CBK260911]	91.3975
Cc1[nH]c(=O)[nH]c(=S)c1C(=O)NCc1cccc(Cl)c1C [CBK115493]	77.8116
CCN(CC)C(=O)c1ccc(NS(=O)(=O)c2ccc(-c3ccccc3)cc2)cc1 [CBK034395]	94.1915
c1ccc2c(c1)nc(-c1cscn1)n2CCCCc1nnn[nH]1 [CBK267110]	109.543
COC[C@H]1CCCN1C(=O)CC[C@H]1CNC(=O)[C@@H]2[C@@H](CCN2C2CCOCC2)N1C [CBK289037]	113.944
COc1ccccc1-c1nccnc1OC(c1ccccc1)c1ccccc1 [CBK106813]	94.4102
CS(=O)(=O)Nc1nccnc1N1CCN(Cc2ccc(Cl)c(Cl)c2)CC1 [CBK084267]	56.2801
Cc1nc(C2CCN(C(=O)c3ccccn3)CC2)c2sccn12 [CBK282238]	111.227
COc1ccc(CN(Cc2cccs2)[C@@H]2COC[C@H]2c2ccc(F)cc2)cc1 [CBK286487]	66.4397
CCN(CC1CCN(C)C1)C(=O)c1cc(COc2cccc(F)c2)[nH]n1 (stereo not shown) [CBK307239]	86.0106
CCOc1ccc(C(=O)Nc2ccc(Cc3ccncc3)cc2)cc1[N+](=O)[O-] [CBK262867]	103.971
CCC(C)CC(=O)NS(=O)(=O)c1cc(C#N)ccc1C (stereo not shown) [CBK306487]	40.0034
O=C(O)CCC(=O)Nc1nc(-c2ccc(Cl)cc2)cs1 [CBK299829]	108.053
Cc1ccc(C(=O)NCCN2CCOCC2)cc1S(=O)(=O)N1CCCCC1 [CBK267329]	98.846
O=C(NCc1ccco1)c1c(NC(=O)C2CCCO2)sc2c1CCC2 (stereo not shown) [CBK268180]	101.829
C/C=C/c1ccc(OCCCSc2ccc(Cl)cc2)c(OC)c1 [CBK264147]	118.873
FC(F)(F)Sc1ccc(COc2cccc3cccnc23)cc1 [CBK002776]	91.6332
COc1ccc(NC(=O)COc2noc3nc(C)c(C)c(C)c23)cc1OC [CBK269526]	98.5227

Structure (SMILES)	% of control remaining
c1ccc(CC2CCN(CCC(c3ccccc3)c3ccccc3)CC2)cc1 [CBK126389]	44.7615
O=C(COc1cccnc1)N1CCN(C(=O)c2ccco2)CC1 [CBK144482]	114.144
COc1ccc2c(c1)OC1(CCN(C(=O)c3ccc(C(C)=O)cc3)CC1)CC2=O [CBK156457]	87.2602
CC(C)c1nc(CCNC(=O)C2(Cn3ccnc3)CC2)no1 [CBK306828]	82.7509
COc1ccc(CC(=O)N2CCCC2c2cccc(Cc3ccc(F)cc3)n2)cc1 (stereo not shown) [CBK286233]	126.715
Cc1cc(S)c2cc(Br)ccc2n1 [CBK288445]	111.006
O=C(Nc1cccc(-c2noc(Cc3ccccc3)n2)c1)c1cccs1 [CBK270244]	60.8672
O=C1N=C(NC2CCCCCC2)SC1Cc1nc2ccccc2[nH]1 (stereo not shown) [CBK066789]	24.3223
CC(=O)Nc1ccc(NC(=O)C2C3CCC(C3)C2C(=O)O)cc1 (stereo not shown) [CBK263534]	108.793
N=c1c2c3c(sc2ncn1CCCn1ccnc1)CCCC3 [CBK264211]	128.013
CCOc1ccc(NCCCCO)cc1 [CBK264386]	102.955
C[C@]1(CO)[C@H]2Cc3sc(-c4ccccc4)nc3[C@@H](CC(=O)O)[C@]2(C)CC[C@H]1O [CBK289572]	92.135
O=C(Nc1ccc2c(c1)OCCO2)N1CCN(c2cc(C(F)(F)F)ccn2)CC1 [CBK162331]	23.3619
Cc1nc(C(Cc2ccsc2)NC(=O)Cn2cccn2)sc1C (stereo not shown) [CBK284781]	120.387
Cc1csc2c(N3CCC(NCCCc4cnn(C)c4)CC3)ncnc12 [CBK307291]	20.8486
CC1CCN(S(=O)(=O)c2cccc(C(=O)N3CCC(C(=O)O)CC3)c2)CC1 [CBK266790]	71.9198
CN(C)CC1(O)C2CN3CCN(C2)CC1(c1ccccc1)C3 (stereo not shown) [CBK263029]	103.227
Cc1nc(O)cc(C2CCCN(C(=O)c3csc4c3CCCC4)C2)n1 (stereo not shown) [CBK306696]	86.3064
COCCNc1ncnc2sc3c(c12)CCCC3 [CBK287583]	98.8899
O=C(Nc1ccc(I)cc1C(=O)NCCN1CCOCC1)c1ccccc1Cl [CBK266245]	65.1932
